Experimental data: the supplement of paper PMC12230231
± gives the standard deviation of the averaged measurements. Restriction of a single-cycle SIVsab GFP reporter by TRIM5α v1-loop variants in CRFK cells. Human variants: read share among cells still uninfected after two challenges over input, higher = gained restriction. Rhesus variants: share among infected cells over input, higher = lost restriction. Reporter dose not given per row. No active / inactive call per row; the paper calls a change when both replicates lie above its controls (mean + 2 SD of stop or wild-type variants, or the top frameshift score). Residues outside the varied loop are taken from Swiss-Prot. The paper reads the human single-substitution scores as noise; they and the rhesus combinations repeat poorly (rank correlation 0.3 to 0.4), indel scores repeat only for the top variants, rhesus substitutions well (0.9).

system: SIVsab (simian immunodeficiency virus of sabaeus monkeys), single-cycle GFP reporter, in CRFK cells; assay: enrichment among infected cells over input (fold); higher = weaker restriction; conditions: library: human / rhesus combinations
Procedure: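 Pools of CRFK cells expressing variants of the TRIM5α v1 loop were challenged with the single-cycle reporter, sorted by GFP and sequenced; mean of two replicates.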

Sequence | enrichment
MASGILLNVKEEVTCPICLELLTEPLSLHCGHSFCQACITANHKKSMLYKEGERSCPVCRISYQPENIQPNRHVANIVEKLREVKLSPEEGQKVDHCARHGEKLLLFCQEDSKVICWLCERSQEHRGHHTFLMEEVAQEYHVKLQTALEMLRQKQQEAEKLEADIREEKASWKIQIDYDKTNVSADFEQLREILDWEESNELQNLEKEEEDILKSLTKSETEMVQQTQYMRELISELEHRLQGSMMDLLQGVDGIIKRIENMTLKKPKTFHKNQRRVFRAPDLKGMLDMFRELTDARRYWVDVTLAPNNISHAVIAEDKRQVSSRNPQIMYGAPGTRFTFPTLTNFNYCTGVLGSQSITSGKHYWEVDVSKKSAWILGVCAGFQSDAMYNIEQNENYQPKYGYWVIGLQEGVKYSVFQDGSSHTPFAPFIVPLSVIICPDRVGVFVDYEACTVSFFNITNHGFLIYKFSQCSFSKPVFPYLNPRKCTVPMTLCSPSS [rhesus TRIM5α, 332-344 = GAPGTRFTFPTLT] | 2.2 ± 0.39
MASGILLNVKEEVTCPICLELLTEPLSLHCGHSFCQACITANHKKSMLYKEGERSCPVCRISYQPENIQPNRHVANIVEKLREVKLSPEEGQKVDHCARHGEKLLLFCQEDSKVICWLCERSQEHRGHHTFLMEEVAQEYHVKLQTALEMLRQKQQEAEKLEADIREEKASWKIQIDYDKTNVSADFEQLREILDWEESNELQNLEKEEEDILKSLTKSETEMVQQTQYMRELISELEHRLQGSMMDLLQGVDGIIKRIENMTLKKPKTFHKNQRRVFRAPDLKGMLDMFRELTDARRYWVDVTLAPNNISHAVIAEDKRQVSSRNPQIMYQAPGTLFQSLVNFNYCTGVLGSQSITSGKHYWEVDVSKKSAWILGVCAGFQSDAMYNIEQNENYQPKYGYWVIGLQEGVKYSVFQDGSSHTPFAPFIVPLSVIICPDRVGVFVDYEACTVSFFNITNHGFLIYKFSQCSFSKPVFPYLNPRKCTVPMTLCSPSS [rhesus TRIM5α, 332-344 = QAPGTLFQSLV] | 7.91 ± 9.2
MASGILLNVKEEVTCPICLELLTEPLSLHCGHSFCQACITANHKKSMLYKEGERSCPVCRISYQPENIQPNRHVANIVEKLREVKLSPEEGQKVDHCARHGEKLLLFCQEDSKVICWLCERSQEHRGHHTFLMEEVAQEYHVKLQTALEMLRQKQQEAEKLEADIREEKASWKIQIDYDKTNVSADFEQLREILDWEESNELQNLEKEEEDILKSLTKSETEMVQQTQYMRELISELEHRLQGSMMDLLQGVDGIIKRIENMTLKKPKTFHKNQRRVFRAPDLKGMLDMFRELTDARRYWVDVTLAPNNISHAVIAEDKRQVSSRNPQIMYQAPGTLYTFPTLVNFNYCTGVLGSQSITSGKHYWEVDVSKKSAWILGVCAGFQSDAMYNIEQNENYQPKYGYWVIGLQEGVKYSVFQDGSSHTPFAPFIVPLSVIICPDRVGVFVDYEACTVSFFNITNHGFLIYKFSQCSFSKPVFPYLNPRKCTVPMTLCSPSS [rhesus TRIM5α, 332-344 = QAPGTLYTFPTLV] | 1.79 ± 0.64
MASGILLNVKEEVTCPICLELLTEPLSLHCGHSFCQACITANHKKSMLYKEGERSCPVCRISYQPENIQPNRHVANIVEKLREVKLSPEEGQKVDHCARHGEKLLLFCQEDSKVICWLCERSQEHRGHHTFLMEEVAQEYHVKLQTALEMLRQKQQEAEKLEADIREEKASWKIQIDYDKTNVSADFEQLREILDWEESNELQNLEKEEEDILKSLTKSETEMVQQTQYMRELISELEHRLQGSMMDLLQGVDGIIKRIENMTLKKPKTFHKNQRRVFRAPDLKGMLDMFRELTDARRYWVDVTLAPNNISHAVIAEDKRQVSSRNPQIMYQAPGTRYTFPTLTNFNYCTGVLGSQSITSGKHYWEVDVSKKSAWILGVCAGFQSDAMYNIEQNENYQPKYGYWVIGLQEGVKYSVFQDGSSHTPFAPFIVPLSVIICPDRVGVFVDYEACTVSFFNITNHGFLIYKFSQCSFSKPVFPYLNPRKCTVPMTLCSPSS [rhesus TRIM5α, 332-344 = QAPGTRYTFPTLT] | 0.907 ± 0.25
MASGILLNVKEEVTCPICLELLTEPLSLHCGHSFCQACITANHKKSMLYKEGERSCPVCRISYQPENIQPNRHVANIVEKLREVKLSPEEGQKVDHCARHGEKLLLFCQEDSKVICWLCERSQEHRGHHTFLMEEVAQEYHVKLQTALEMLRQKQQEAEKLEADIREEKASWKIQIDYDKTNVSADFEQLREILDWEESNELQNLEKEEEDILKSLTKSETEMVQQTQYMRELISELEHRLQGSMMDLLQGVDGIIKRIENMTLKKPKTFHKNQRRVFRAPDLKGMLDMFRELTDARRYWVDVTLAPNNISHAVIAEDKRQVSSRNPQIMYGARGTRYTFQTLTNFNYCTGVLGSQSITSGKHYWEVDVSKKSAWILGVCAGFQSDAMYNIEQNENYQPKYGYWVIGLQEGVKYSVFQDGSSHTPFAPFIVPLSVIICPDRVGVFVDYEACTVSFFNITNHGFLIYKFSQCSFSKPVFPYLNPRKCTVPMTLCSPSS [rhesus TRIM5α, 332-344 = GARGTRYTFQTLT] | 1.03 ± 0.18
MASGILLNVKEEVTCPICLELLTEPLSLHCGHSFCQACITANHKKSMLYKEGERSCPVCRISYQPENIQPNRHVANIVEKLREVKLSPEEGQKVDHCARHGEKLLLFCQEDSKVICWLCERSQEHRGHHTFLMEEVAQEYHVKLQTALEMLRQKQQEAEKLEADIREEKASWKIQIDYDKTNVSADFEQLREILDWEESNELQNLEKEEEDILKSLTKSETEMVQQTQYMRELISELEHRLQGSMMDLLQGVDGIIKRIENMTLKKPKTFHKNQRRVFRAPDLKGMLDMFRELTDARRYWVDVTLAPNNISHAVIAEDKRQVSSRNPQIMYQARGTRYTFPTFTNFNYCTGVLGSQSITSGKHYWEVDVSKKSAWILGVCAGFQSDAMYNIEQNENYQPKYGYWVIGLQEGVKYSVFQDGSSHTPFAPFIVPLSVIICPDRVGVFVDYEACTVSFFNITNHGFLIYKFSQCSFSKPVFPYLNPRKCTVPMTLCSPSS [rhesus TRIM5α, 332-344 = QARGTRYTFPTFT] | 0.831 ± 0.1
MASGILLNVKEEVTCPICLELLTEPLSLHCGHSFCQACITANHKKSMLYKEGERSCPVCRISYQPENIQPNRHVANIVEKLREVKLSPEEGQKVDHCARHGEKLLLFCQEDSKVICWLCERSQEHRGHHTFLMEEVAQEYHVKLQTALEMLRQKQQEAEKLEADIREEKASWKIQIDYDKTNVSADFEQLREILDWEESNELQNLEKEEEDILKSLTKSETEMVQQTQYMRELISELEHRLQGSMMDLLQGVDGIIKRIENMTLKKPKTFHKNQRRVFRAPDLKGMLDMFRELTDARRYWVDVTLAPNNISHAVIAEDKRQVSSRNPQIMYGARGTLYTFQSFTNFNYCTGVLGSQSITSGKHYWEVDVSKKSAWILGVCAGFQSDAMYNIEQNENYQPKYGYWVIGLQEGVKYSVFQDGSSHTPFAPFIVPLSVIICPDRVGVFVDYEACTVSFFNITNHGFLIYKFSQCSFSKPVFPYLNPRKCTVPMTLCSPSS [rhesus TRIM5α, 332-344 = GARGTLYTFQSFT] | 1.3 ± 0.024
MASGILLNVKEEVTCPICLELLTEPLSLHCGHSFCQACITANHKKSMLYKEGERSCPVCRISYQPENIQPNRHVANIVEKLREVKLSPEEGQKVDHCARHGEKLLLFCQEDSKVICWLCERSQEHRGHHTFLMEEVAQEYHVKLQTALEMLRQKQQEAEKLEADIREEKASWKIQIDYDKTNVSADFEQLREILDWEESNELQNLEKEEEDILKSLTKSETEMVQQTQYMRELISELEHRLQGSMMDLLQGVDGIIKRIENMTLKKPKTFHKNQRRVFRAPDLKGMLDMFRELTDARRYWVDVTLAPNNISHAVIAEDKRQVSSRNPQIMYGAPGTLYTFPTLTNFNYCTGVLGSQSITSGKHYWEVDVSKKSAWILGVCAGFQSDAMYNIEQNENYQPKYGYWVIGLQEGVKYSVFQDGSSHTPFAPFIVPLSVIICPDRVGVFVDYEACTVSFFNITNHGFLIYKFSQCSFSKPVFPYLNPRKCTVPMTLCSPSS [rhesus TRIM5α, 332-344 = GAPGTLYTFPTLT] | 2.15 ± 0.81
